The structures appear in SMILES notation. Out of some 310,000 compounds screened, about 2,200 (0.71%) showed an effect of 50% or more. The effect is printed as a negative number. This is one part of the list.

The target of the experiment is human ether-à-go-go-related gene (hERG) potassium channel (human, UniProt Q12809). In words: primary screen, population patch clamp on CHO cells stably expressing hERG.
Chain of human ether-à-go-go-related gene (hERG) potassium channel (Q12809 whole entry, looked up): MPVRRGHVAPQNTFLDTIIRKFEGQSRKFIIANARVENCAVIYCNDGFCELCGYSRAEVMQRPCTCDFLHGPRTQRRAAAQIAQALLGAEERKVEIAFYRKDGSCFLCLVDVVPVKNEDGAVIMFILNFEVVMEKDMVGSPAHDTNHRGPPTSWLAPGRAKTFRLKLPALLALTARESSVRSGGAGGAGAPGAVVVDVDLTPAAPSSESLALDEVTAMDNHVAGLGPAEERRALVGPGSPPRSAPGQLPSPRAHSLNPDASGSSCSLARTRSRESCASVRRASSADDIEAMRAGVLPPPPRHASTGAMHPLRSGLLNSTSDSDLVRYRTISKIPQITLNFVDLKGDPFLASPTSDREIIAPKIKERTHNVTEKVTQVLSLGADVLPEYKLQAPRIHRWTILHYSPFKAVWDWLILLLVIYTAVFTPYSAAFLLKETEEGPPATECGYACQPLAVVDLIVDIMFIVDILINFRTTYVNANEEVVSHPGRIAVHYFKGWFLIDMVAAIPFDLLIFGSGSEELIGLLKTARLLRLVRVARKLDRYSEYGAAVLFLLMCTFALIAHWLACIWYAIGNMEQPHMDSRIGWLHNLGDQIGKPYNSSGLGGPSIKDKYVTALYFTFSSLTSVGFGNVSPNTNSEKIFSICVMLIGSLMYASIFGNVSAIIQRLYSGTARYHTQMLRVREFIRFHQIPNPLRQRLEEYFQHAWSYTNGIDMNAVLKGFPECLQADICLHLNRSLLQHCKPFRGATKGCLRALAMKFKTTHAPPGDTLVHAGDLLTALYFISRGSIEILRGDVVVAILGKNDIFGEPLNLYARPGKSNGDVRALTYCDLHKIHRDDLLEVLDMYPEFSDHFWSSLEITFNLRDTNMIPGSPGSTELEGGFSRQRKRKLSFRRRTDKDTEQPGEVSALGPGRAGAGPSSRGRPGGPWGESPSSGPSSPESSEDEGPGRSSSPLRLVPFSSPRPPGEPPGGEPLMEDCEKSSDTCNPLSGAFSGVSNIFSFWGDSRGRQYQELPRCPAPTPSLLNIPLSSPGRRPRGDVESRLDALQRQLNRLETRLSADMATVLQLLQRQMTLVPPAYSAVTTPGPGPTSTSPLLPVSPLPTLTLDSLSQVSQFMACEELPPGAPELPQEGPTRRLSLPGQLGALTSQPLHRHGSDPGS
Regarding `C=CCNc1nc(N)c(C(=C(C#N)C#N)c2ccc(Br)cc2)s1`, the “hERG current change (%, negative = inhibition) at 1uM” value is listed as 8.88%.

Regarding `CN(C)c1ccc(/C=N/NC(=O)C2CC2c2ccccc2)cc1` (stereo not drawn), the “hERG current change (%, negative = inhibition) at 1uM” value is listed as 9.78%.

In the case of `Cn1c(COc2ccccc2)nnc1SCCC(=O)Nc1ccccc1`, the “hERG current change (%, negative = inhibition) at 1uM” value is on record as -0.018%.

Turning to `CN1CCN(C(CNC(=O)C(=O)NC2CCCC2)c2ccc(F)cc2)CC1` (stereo not drawn), the “hERG current change (%, negative = inhibition) at 1uM” value was 5.31%.

As for `O=C(c1ccco1)N1CCCN(Cc2nc(-c3cccs3)no2)CC1`, the “hERG current change (%, negative = inhibition) at 1uM” value came out at 5.47%.

For `CCS(=O)(=O)N1CCCC(C(=O)NCc2ccc(C)cc2)C1` (stereo not drawn), the “hERG current change (%, negative = inhibition) at 1uM” value is 8.94%.

For the molecule `O=C(CSc1nc(-c2ccc(F)cc2)cc(C(F)(F)F)n1)NCc1ccco1`, the “hERG current change (%, negative = inhibition) at 1uM” value was 14.3%.

As for `COc1cc(/C=N/NC(=O)c2cccc3ccccc23)cc(OC)c1OC`, the “hERG current change (%, negative = inhibition) at 1uM” value was 12.9%.

Regarding `CCC(Oc1ccccc1)C(=O)Nc1ccc(C)c(S(=O)(=O)N2CCOCC2)c1` (stereo not drawn), the “hERG current change (%, negative = inhibition) at 1uM” value is recorded as 3.57%.

Take `O=C(CCCC(=O)NCc1ccc(F)cc1)NCc1ccc(F)cc1`: the “hERG current change (%, negative = inhibition) at 1uM” value is -19.4%.

Regarding `CC(C)Oc1ccc(-c2cc(C(=O)NCCN3CCOCC3)c3ccccc3n2)cc1`, the “hERG current change (%, negative = inhibition) at 1uM” value came to 5.91%.

As for `O=C(CN(Cc1ccccc1)C(=O)CSc1nnc(COc2ccccc2)o1)NC1CCCC1`, the “hERG current change (%, negative = inhibition) at 1uM” value was -1.24%.

Take `CN(/N=C/c1ccc2c(c1)OCO2)c1nc(N2CCOCC2)nc(N2CCOCC2)n1`: the “hERG current change (%, negative = inhibition) at 1uM” value was 12.2%.

`CCOC(=O)c1cc(C#N)c(SCc2ccc(C#N)cc2)nc1C`: the “hERG current change (%, negative = inhibition) at 1uM” value was found to be 8.27%.

As to `NS(=O)(=O)c1ccc(CCNC(=O)COC(=O)/C=C/c2ccccc2Cl)cc1`, the “hERG current change (%, negative = inhibition) at 1uM” value was determined as 7.79%.

Turning to `NC1=NS(=O)(=O)NC1c1cccc(F)c1` (stereo not drawn), the “hERG current change (%, negative = inhibition) at 1uM” value is 14.4%.

In the case of `COc1ccc(-c2cc(=O)oc3cc(OCC(=O)N(C)C4CCS(=O)(=O)C4)ccc23)cc1` (stereo not drawn), the “hERG current change (%, negative = inhibition) at 1uM” value is 18.8%.

Turning to `O=C(NCc1ccccc1)N1CCN(c2ccccc2)CC1`, the “hERG current change (%, negative = inhibition) at 1uM” value was 14.2%.

For the molecule `COc1ccc(C(=O)O)cc1S(=O)(=O)NC(C)C12CC3CC(CC(C3)C1)C2` (stereo not drawn), the “hERG current change (%, negative = inhibition) at 1uM” value stood at 9.53%.

Regarding `COc1ccc(S(=O)(=O)NCCSCc2ccco2)cc1C`, the “hERG current change (%, negative = inhibition) at 1uM” value is reported as 5.09%.

In the case of `C[N+]1(C)C2CCC1CC(OC(=O)C(CO)c1ccccc1)C2.[I-]` (stereo not drawn), the “hERG current change (%, negative = inhibition) at 1uM” value worked out at 18.4%.

On to `Cc1ccccc1Nc1ccc(S(=O)(=O)N2CCOCC2)cc1[N+](=O)[O-]`, for which the “hERG current change (%, negative = inhibition) at 1uM” value is 10.2%.

Consider `Cl.O=C(CC1=NC2(CCCC2)Cc2ccccc21)N1CCOCC1`, for which the “hERG current change (%, negative = inhibition) at 1uM” value is reported as 4.49%.

Consider `O=C(Nn1c(-c2ccccc2)nc2ccccc2c1=O)C1CCC1`, for which the “hERG current change (%, negative = inhibition) at 1uM” value is -0.0108%.

The values are drawn from article PMC4336329 (PLoS ONE, 2015).
